Laboratory results taken from patent US20200390902A1, “Antibody-Drug Conjugates Targeted at Human Aspartyl-(Asparaginyl)-B-Hydroxylase (HAAH)” (Panacea Pharmaceuticals, Inc., priority 2017, published 2020).
“Also recorded” adds a separate entry of the source.

Columns and labels:
MOLM-14 cells = assay: MTS cell viability assay, MOLM-14; format: cell-based, human; conditions: MOLM-14, 24 hours
Protocol: Human H460 cells were obtained from the American Type Culture Collection (ATCC; Manassas, Va., U.S.A.). […] Human MOLM-14 cells were obtained from Dr. Ashkan Emadi at University of Maryland (Baltimore. Md., U.S.A.). The MOLM-14 cells were seeded at a density of 5000 cells/well in 96-well plates and cultured in RPMI 1640 with 20% heat-inactivated FBS. The H460 and MOLM-14 cells were treated with naked antibodies or ADCs for 24 hours, starting at the time of cell seeding. By the end of experiment, the cell viability for both cell lines was determined quantitatively using CELL TITER 96 AQUOUS ONE SOLUTION cell proliferation assay, a colorimetric method for determining the number of viable cells (MTS; Promega, Madison. Wis., U.S.A.; Catalog No. G3582).

H460 lysate = biological target: T1, H460 lysate (Homo sapiens, UniProt Q12797); assay: Binding of naked antibodies and ADCs to H460 lysate
T1 construct: A 96-well plate was coated with H460 lysate and dried at room temperature overnight; endogenous in cells; host or cells: H460 lysate (sonicated, supernatant)
T1 sequence (Q12797 1-758): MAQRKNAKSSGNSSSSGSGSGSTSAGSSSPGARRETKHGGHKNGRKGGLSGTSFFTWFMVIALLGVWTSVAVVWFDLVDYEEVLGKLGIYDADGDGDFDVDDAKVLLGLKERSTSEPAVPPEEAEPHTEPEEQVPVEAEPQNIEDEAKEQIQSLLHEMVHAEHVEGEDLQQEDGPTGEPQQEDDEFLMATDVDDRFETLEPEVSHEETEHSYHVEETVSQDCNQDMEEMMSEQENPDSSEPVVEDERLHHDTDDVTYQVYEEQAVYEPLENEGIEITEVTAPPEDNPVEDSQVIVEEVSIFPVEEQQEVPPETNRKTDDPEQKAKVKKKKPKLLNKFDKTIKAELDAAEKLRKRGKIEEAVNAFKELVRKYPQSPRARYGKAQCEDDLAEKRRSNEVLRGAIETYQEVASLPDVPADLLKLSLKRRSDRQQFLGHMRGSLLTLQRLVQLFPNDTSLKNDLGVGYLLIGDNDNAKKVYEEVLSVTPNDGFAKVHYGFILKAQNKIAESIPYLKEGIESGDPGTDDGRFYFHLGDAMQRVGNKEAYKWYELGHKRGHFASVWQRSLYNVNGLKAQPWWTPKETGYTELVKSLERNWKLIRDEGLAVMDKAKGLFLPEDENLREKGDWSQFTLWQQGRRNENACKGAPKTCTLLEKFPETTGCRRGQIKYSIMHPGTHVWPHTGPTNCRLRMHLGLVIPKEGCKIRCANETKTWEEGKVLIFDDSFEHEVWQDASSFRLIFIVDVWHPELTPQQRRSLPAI
Protocol: H460 cells were harvested, the cell density was adjusted to 2×10^6 cells/ml with PBS, and the resuspended cells sonicated on ice twice in 30 second pulses. After centrifugation at 300×g for 5 minutes the supernatant was collected and the protein concentration measured using a NANODROP spectrophotometer (ThermoFisher Scientific). A 96-well plate was coated with H460 lysate and dried at room temperature overnight. Following a 1-hour blockage with 1% non-fat dry milk in phosphate buffered saline (PBS), the plates were incubated for 45 minutes at 37° C. with each either 0.5 μg/ml IgG1λ (non-specific monoclonal antibody), IgG1λ-MC-DM1 (non-specific ADC), or SNS622-MC-DM1, or with 5 μg/ml SNS622. Following five PBS rinses to remove un-bound antibody. 1:100 goat anti-human IgG (8)-HRP was added and the plates incubated for 30 minutes at 37° C. Following five PBS rinses TMB substrate was added and, after incubation of the plates for 15 minutes at room temperature. Stop solution was added to terminate the reactions. The plates were read at 450 nm using a 96-well plate reader (ELx808, BioTek).

HAAH = biological target: T2, HAAH (Homo sapiens, UniProt Q12797); conditions: live cells; previously shown; read-out: Affinity for HAAH as expressed on live cells; cited from earlier work
T2 construct: endogenous in cells; host or cells: H460 (fixed)
T2 sequence (Q12797 1-758): T1 sequence (Q12797 1-758)

B1: SNS622: high-affinity, fully-humanized monoclonal antibody against human aspartyl (asparaginyl) beta-hydroxylase; SEQ ID NO: 1 and 2 (antibody)
heavy: QVQLQQSGPGLVKPSQTLSLTCAISGDSVSSNSAAWNWIRQSPSRGLEWLGRTYYRSKWYNDYAVSVKSRITINPDTSKNQFSLQLNSVTPEDTAVYYCARTGYSSSWVVNFDYWGQGTLVTVSSASTKGPSVFPLAPSSKSTSGGTAALGCLVKDYFPEPVTVSWNSGALTSGVHTFPAVLQSSGLYSLSSVVTVPSSSLGTQTYICNVNHKPSNTKVDKRV[human IgG1 Fc left out]
light: QPVLTQSPSASGTPGQRVTISCSGSSSNIGSNYVYWYQQLPGTAPKLLIYKNNQRPSGVPDRFSGSKSGTAASLAISGLQSEDEADYYCAAWDDSLRGYVFGTGTKLTVLGQPKAAPSVTLFPPSSEELQANKATLVCLISDFYPGAVTVAWKADSSPVKAGVETTTPSKQSNNKYAASSYLSLTPEQWKSHRSYSCQVTHEGSTVEKTVAPTECS
modifications: Heavy Chain; Light Chain
Effect on MOLM-14 cell viability / growth (MTS) (MOLM-14 cells): did not suppress the in vitro growth of MOLM-14; also recorded: little to no changes in MOLM-14 cell viability | Percent binding (H460 lysate; percent of loading amount bound): 92% | Binding amount (H460 lysate; sonicated H460 (2E^6 cells/ml), loading 5.0 or 0.5 μg/ml): 0.46 µg/mL | Kd (HAAH): ~1 nM
